According to PubChem BioAssay AID493208 (National Center for Advancing Translational Sciences (NCATS), 2011):
About 340 (0.77%) of roughly 44,000 compounds were called active. About 5% were inconclusive and are not listed. Calls follow the shape of the dose curve; as a rule, active = well fitted inhibition curve with a large enough effect; inconclusive = small, poorly fitted or top-dose-only effect; inactive = flat fitted curve, though single readings scatter. This is one part of the list.

Assay: Acumen qHTS Assay for Inhibitors of the mTORC1 Signaling Pathway in MEF (Tsc2-/-, p53-/-) Cells: Sytravon;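 also: plate controls were DMSO for no effect and rapamycin for full effect; nearly all actives have a fitted effect of over 50% in size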
Settings: phospho-rpS6 immunofluorescence/PI, 24 h; series mostly up to 38.3 µM; activity change, negative = inhibition: at the top concentration
How it was run: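 Readout is phospho-S6 Alexa 488 signal normalized to PI per well, reported as % active cells with thresholds set from rapamycin (7.5 nM) and DMSO controls. Cells: Tsc2-/-, p53-/- MEFs, 24 hrs compound at 37 C; PI cell number serves as viability.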

Activity change, negative = inhibition, inactive:
CC1=C(C(=O)Nc2ccccc2)C(c2cc(Br)ccc2F)n2ncc(C(=O)Nc3ccccc3)c2N1 (stereo not given) -5.49%
COc1cccc(-c2nc(S(=O)(=O)c3ccccc3)c(N3CCC(C)CC3)o2)c1 -20.5%
Cc1ccc(NC(=O)c2nnn(CC(=O)Nc3ccc(C)c(Cl)c3)c2N)c(C)c1 1.65%
O=c1c2ccccc2nc(-c2ccc(Cl)cc2)n1CCCOc1ccccc1F 2.91%
COc1cc(C(=O)NCCc2csc3nc(-c4ccccc4C)nn23)cc(OC)c1OC -14%
COc1ccc(NC(=O)Cn2c(=O)n(-c3ccc(OC)cc3)c(=O)c3ccc(C(=O)NCc4ccc(C)cc4)cc32)cc1 -19.4%
CC(C)c1ccc(NC(=O)CC2Oc3ccccc3NC2=O)cc1 (stereo not given) -0.207%
Cc1cc(OCC(=O)N(Cc2ccc(N(C)C)cc2)C2CCS(=O)(=O)C2)cc(C)c1Cl (stereo not given) 3.53%
Cc1ccc(Cl)cc1NC(=O)CN1C(=O)COc2ccc(S(=O)(=O)N3CCCCCC3)cc21 -2.8%
COc1ccccc1CCNC(=O)CCc1c(C)c2cc3c(C)c(C)oc3cc2oc1=O -7.04%
Cc1ccc(NC(=O)C(=O)NCC(c2ccc3c(c2)OCO3)N2CCN(c3ccccc3)CC2)cc1 (stereo not given) -7.99%
O=C(c1cccs1)c1cn(CCOc2ccccc2Cl)c2ccccc12 -13.9%
CCN(C(=O)C(Cc1ccccc1)NS(=O)(=O)c1cccc2nsnc12)c1ccccc1 (stereo not given) -13.9%
Cc1ccc(C)c(NC(=O)CCc2c(C)nn(-c3ccc(N4CCCC4)nn3)c2C)c1 -26%
CCOc1ccc(CCNC(=O)c2ccc(-c3nc(COc4ccc(C)cc4)c(C)o3)cc2)cc1 0.61%
COc1ccc(NC(=O)CSc2nc(-c3ccc(F)cc3)c3cccc(C)c3n2)cc1 -1.78%
COCCCn1c(SCC(=O)Nc2ccccc2OC)nc2c(sc3ccccc32)c1=O -2.43%
COc1ccc(CCNC(=O)c2ccc(Cn3c(=O)c4ccccc4n(Cc4ccc(C)cc4)c3=O)cc2)cc1OC -1.26%
COc1ccc(C2C(=O)N(C3CCCCCC3)CC(=O)N2CCc2ccc(OC)c(OC)c2)cc1 (stereo not given) -13.2%
Cc1ccc2nc(CN3CCN(C(=O)Nc4ccc(C)c(F)c4)CC3)oc2c1 0.754%
CCCCN(C)CCCNC(=O)c1cc(-c2cccnc2)nc2ccccc12 0.494%
CCC1=Nc2cc(C(=O)NCc3ccc(C)cc3)ccc2Sc2ccc(C)cc21 -16.4%
CCOC(=O)C1CCCN(C(=O)Cn2ncn3c(cc4sc(CC)cc43)c2=O)C1 (stereo not given) -2.67%
COC(=O)c1ccc(OC)c(Cn2c(=O)n(-c3cccc(Cl)c3)c(=O)c3c4c(sc32)CN(C(C)=O)CC4)c1 5.19%
COc1ccc(-c2oc3ncn4nc(COc5ccccc5C)nc4c3c2-c2ccc(OC)cc2)cc1 7.47%
